The supplement of paper PMC3334620
Whole data set: some 33,000 sequences, median “E-score (-0.5 to 0.5)” near -0.053, cut for the highest 2% near 0.37. The list shows a part of the results.

Molecular target: Hap1 (UniProt P0CE41)
Assay: PBM E-score (8-mer binding enrichment) (E-score (-0.5 to 0.5)); higher = stronger / more preferred TF binding; most listed sequences are background and not binding sites
Details: protein concentration: 200 nM; construct: GST-DNA-binding domain
Summary of the method: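 Yeast transcription factors carrying a GST tag, as full-length proteins or DNA-binding domains, were produced by PURExpress in vitro transcription/translation. About 100-200 nM protein was applied to universal all-10-mer Agilent arrays, double-stranded by primer extension on fresh or once-stripped slides. Bound protein was detected with fluorescent anti-GST, and scans were normalised with masliner. The Universal PBM Analysis Suite gave each ungapped eight-base word, pooled with its reverse complement, an E-score, a modified Wilcoxon-Mann-Whitney statistic.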

UniProt P0CE41, sequence (P0CE41 whole entry): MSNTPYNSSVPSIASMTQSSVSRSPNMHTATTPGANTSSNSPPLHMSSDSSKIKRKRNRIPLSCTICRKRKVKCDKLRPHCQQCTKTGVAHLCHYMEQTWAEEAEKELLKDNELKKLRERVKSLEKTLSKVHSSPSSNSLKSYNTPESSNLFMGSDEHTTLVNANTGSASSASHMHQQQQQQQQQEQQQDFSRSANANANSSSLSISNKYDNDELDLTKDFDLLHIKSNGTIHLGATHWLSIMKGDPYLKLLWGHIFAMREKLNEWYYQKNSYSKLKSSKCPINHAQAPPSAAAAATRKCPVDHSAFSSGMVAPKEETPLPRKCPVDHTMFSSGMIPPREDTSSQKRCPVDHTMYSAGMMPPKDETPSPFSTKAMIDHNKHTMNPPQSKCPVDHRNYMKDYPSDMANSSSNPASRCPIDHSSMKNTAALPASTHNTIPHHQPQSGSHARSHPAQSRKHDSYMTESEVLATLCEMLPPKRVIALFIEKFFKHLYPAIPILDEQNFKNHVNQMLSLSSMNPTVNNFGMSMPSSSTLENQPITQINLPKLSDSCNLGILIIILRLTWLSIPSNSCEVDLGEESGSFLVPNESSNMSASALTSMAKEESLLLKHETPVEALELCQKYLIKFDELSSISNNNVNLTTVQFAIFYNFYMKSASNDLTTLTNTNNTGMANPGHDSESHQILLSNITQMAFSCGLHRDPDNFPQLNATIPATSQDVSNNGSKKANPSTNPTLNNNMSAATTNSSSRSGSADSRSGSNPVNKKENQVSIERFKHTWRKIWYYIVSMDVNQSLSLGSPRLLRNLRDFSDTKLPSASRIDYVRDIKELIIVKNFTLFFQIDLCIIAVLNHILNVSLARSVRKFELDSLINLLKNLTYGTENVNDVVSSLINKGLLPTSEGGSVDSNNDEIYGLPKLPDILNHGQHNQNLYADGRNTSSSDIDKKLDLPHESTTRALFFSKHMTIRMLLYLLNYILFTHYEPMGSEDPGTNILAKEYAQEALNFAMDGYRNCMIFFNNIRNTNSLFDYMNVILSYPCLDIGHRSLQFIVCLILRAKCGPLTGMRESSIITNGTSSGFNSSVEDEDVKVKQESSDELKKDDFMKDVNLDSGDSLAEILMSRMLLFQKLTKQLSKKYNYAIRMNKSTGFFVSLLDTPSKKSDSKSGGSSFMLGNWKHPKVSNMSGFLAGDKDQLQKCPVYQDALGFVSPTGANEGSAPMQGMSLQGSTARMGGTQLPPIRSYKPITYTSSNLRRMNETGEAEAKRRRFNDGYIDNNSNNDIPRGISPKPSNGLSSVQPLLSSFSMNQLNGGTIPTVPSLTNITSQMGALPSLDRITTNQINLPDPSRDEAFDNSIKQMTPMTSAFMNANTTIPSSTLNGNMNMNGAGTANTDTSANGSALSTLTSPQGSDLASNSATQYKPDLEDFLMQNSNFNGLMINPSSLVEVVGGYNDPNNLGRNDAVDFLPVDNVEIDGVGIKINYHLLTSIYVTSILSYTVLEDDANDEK

Sequence | PBM E-score
CAGATGTC | 0.0461
AACGGAGC | 0.241
GGCTGCCA | -0.0802
CCCCGTAC | 0.0387
GACAATGC | 0.024
GAGATCCA | -0.0353
CGCGATCC | 0.0148
GTCAATTA | -0.16
ACGGTGCG | 0.0448
ACACGAAA | -0.0401
TAGTTATA | -0.0796
GGCAACAA | -0.111
AGAGATTC | -0.039
AATTCCGA | 0.43
AGATCTGG | -0.187
CATCTTCG | -0.0503
GTCACTGA | -0.065
ATTCTGAG | -0.0623
TATTGTCA | -0.161
ATTTCACA | -0.131
ACATGCCT | -0.141
ACCGCCGA | 0.36
CTTACAAA | -0.0557
GTGGAAAA | -0.12
GTGCGAAA | -0.043

Sequence | PBM E-score
AGACCACG | -0.178
AAACAAGA | -0.0194
AGGACTTC | -0.152
AGCAGCGC | -0.1
GGTGAGTA | -0.186
AGTAGCAA | -0.0345
CAAAACCC | 0.219
CGCGCCAC | 0.0206
AGACCCAA | -0.144
CCAGCGTC | 0.0197
CACTCATC | -0.0533
AACGCCTA | -0.0611
ACACACTC | -0.236
CATGAATA | -0.293
ATCACACA | -0.207
CATCGACA | -0.0278
AAGTGTGG | 0.044
AGTCCTCG | -0.0664
AGGCCTGC | -0.0481
GGAGCGGA | 0.218
CGGGAACG | 0.226
ACCCCGAG | 0.348
ACTGACGG | 0.139
ACTCCCTC | -0.226
ACCATTGG | -0.179

Sequence | PBM E-score
GACGCATA | 0.1
ACGTCTAC | -0.179
CCAGAGCG | -0.141
AAATCCCC | 0.169
CTAACTAA | -0.175
AGCCTGAA | -0.0194
ATGCTCGC | -0.242
AACTTGGC | -0.0943
GTGGGCAA | -0.118
AAGTCGCC | 0.0232
CAGGCAAA | -0.0524
GCGCTAAC | 0.0252
CCTGGACC | -0.257
ACCCCACG | 0.0257
ATCGGAAC | 0.318
ACTCCGAC | 0.353
ATGCTAAC | -0.112
CCACCTAA | -0.224
AGACCGCT | 0.0523
CTCAGAAG | -0.188
ACGGGTGG | 0.16
CATAACAA | 0.00786
AAAATTGC | 0.00503
CATCGAGA | -0.0895
CAATGGTG | -0.314

Sequence | PBM E-score
ATGGTTCC | 0.0504
CGACCGAG | 0.371
GTGGGAGA | -0.15
CAACTTGC | -0.169
CGCGCACA | 0.0274
AAAATGTC | 0.0263
AGCTCTGG | -0.0783
GACGTACA | 0.0308
GTTTCAGA | -0.131
ACCCAAGA | -0.184
AGCGAGCC | 0.073
AGAGAGTC | -0.252
CCGTCGGC | 0.33
CAACCCGG | 0.182
TGATCAAA | -0.18
ATAGTAAA | -0.076
GAAATAGC | 0.131
AACCGCCA | -0.0639
CCAGTCAC | -0.132
CGTTACCC | -0.0123
CTGCGGCA | -0.0609
TAGCGTCA | -0.154
CCATAGCC | -0.0525
CAGCCCCG | 0.226
CCGGCCGA | 0.453

Sequence | PBM E-score
CACTCTTC | -0.127
ATCGGCAT | 0.331
GTTAATGA | -0.0665
CGACAGCC | -0.0487
AAGACATC | -0.119
CACGCAGG | -0.0746
GATTTCCA | -0.0294
ATAGCTGA | -0.0318
AAACCAGG | -0.101
ACCCTCAC | -0.201
GGAAGATA | 0.0526
CGCACCTC | 0.0468
AAGCTAGA | -0.234
CAGTTGCA | -0.184
CATGTTAC | -0.147
GTAGCAAA | -0.0522
CCGTCAAC | -0.115
AATCCACA | -0.0108
AGGTTGGG | -0.164
CACCCCAG | -0.139
TCACCCCA | -0.032
AATATCCA | 0.0415
AGTATGAC | 0.0729
AAAATGTG | -0.0183
CCGTGATA | 0.175

Sequence | PBM E-score
GAGTGGAC | -0.0763
GCGATGAC | 0.116
ATATAGAT | -0.0761
GTCGTGTA | -0.305
AACCCACG | -0.0614
AAATGTCC | 0.282
AATGGCGT | -0.091
AAATTCCC | 0.145
GCGCTACA | 0.0107
GGGGGATA | 0.134
AAGTAAGA | -0.321
AAGGCACG | 0.106
ACTCATCG | -0.0326
GACAGGAC | -0.0139
CGTGTCCC | 0.0457
GGCCAGGA | -0.089
CATCTTTC | -0.224
ACACCCAT | -0.0848
GCTAACGA | 0.113
AACTTACA | -0.241
CATAAATG | -0.195
CGTAAAAC | 0.145
CGACATTA | 0.122
GTAGCCTA | -0.403
GTAGCGAC | -0.132

Sequence | PBM E-score
GCATTGAA | -0.059
AGCCAGAC | -0.107
GGCCTAGA | -0.119
AGGTAGTC | -0.0462
ACTCTGAC | -0.00146
ATGATTTC | 0.065
ATCCTGGA | -0.194
GGTCCATA | 0.0375
GTGAAACA | -0.177
CCCCCAGG | -0.288
GATAGGCA | -0.225
CAAACTCC | 0.228
TGAGCTAA | -0.141
AGAGACAA | -0.0839
AACATGGT | -0.211
GGAGCTAA | 0.325
CGCGTGAA | 0.0387
ATGGTCAG | -0.139
GAACTGGA | 0.0859
TATGAAAA | -0.0206
AGGATTAA | 0.034
GGACGCCA | -0.0384
GCCGACCA | 0.209
CATAGGGG | -0.087
ATCCTAAC | -0.00064

Sequence | PBM E-score
CGAGCCGC | 0.248
AGGTAAGG | -0.214
AGACTACT | -0.131
ACAAATGA | -0.227
GCGTTGCC | 0.167
CTTAGCGA | -0.0415
GACCATTA | -0.0365
ACTTACAC | -0.164
AGCGCCTG | 0.104
CAATGTCG | -0.0178
AATGAGTC | -0.121
TACCGAAA | 0.188
TACACAGA | -0.311
CCTTACAC | -0.193
AACAAGCG | 0.123
ATGCTTAG | -0.194
AAGAAGCT | -0.082
AGAGATTG | -0.0978
AGAGCTGA | -0.194
ATTGTTCC | 0.249
AGGCGGAG | 0.175
GCGCAGCC | -0.0639
AGTCGGCA | 0.0618
AAGCTCGG | 0.36
CTCCTAAA | -0.263

Sequence | PBM E-score
CAATATTA | 0.0504
TAGGAAAA | -0.13
ACCGCTTA | -0.0802
AATGAAGC | -0.133
CCCTGTCC | -0.139
GACTTGAC | -0.102
CCGTCTTA | -0.122
GCGGCAAA | 0.202
AATCCCCC | 0.133
ATGTAATC | -0.0965
AATCGCTG | 0.227
CGAATGTA | 0.108
CAGCAAGA | -0.0234
CGCCATTA | 0.143
CTGCAAAC | -0.234
CAGCTCGC | -0.0482
AGTTGAAT | -0.0992
AAAGAGCT | -0.201
AATTTCTC | 0.107
TCCACCAA | -0.18
ATGGACTG | -0.203
CTGAAAGC | 0.0591
GCAAGCGA | -0.099
CGACAACC | -0.0547
AAGGGATA | -0.232

Sequence | PBM E-score
AACCAAGA | -0.137
GAAATTTC | 0.235
AGGACCGC | 0.168
GAGTACTA | -0.0444
AGCTATAG | -0.244
CGACTACA | -0.184
GGGGGTAC | 0.215
AGCAAAGA | -0.228
AACGTTGG | -0.218
AGGAGACT | -0.218
CACGCTCA | -0.0603
CGTGCGCC | 0.0375
ATGTGCGA | -0.0499
GCGGATAC | 0.206
CACCAAGA | -0.104
ATTGGTCC | 0.171
ATGGCGGA | 0.188
GGGTAGGA | 0.00042
CTAAAGGA | -0.033
CCGAACGG | 0.342
CTCCACAA | -0.189
GCCCAAAA | -0.112
ATTTTTTG | 0.0593
AGTGGCAA | -0.152
AACCCTCC | 0.0459

Sequence | PBM E-score
ATAAGTCG | 0.0327
AACGACTT | -0.236
CTTAGAAG | -0.131
AGCATCGC | 0.0983
AGCGTATG | 0.0702
GACTCCTA | -0.279
CCCGGGTA | 0.315
AAACGTTG | -0.222
CATTCTAC | -0.121
CAATACTA | -0.193
CAGTCATG | -0.145
GTTCCTCA | -0.0529
AGCAATAG | -0.114
AACATACA | -0.113
ACCGTGCG | 0.149
CGGCTTAA | 0.391
GTAGGCAA | -0.267
AGAGGCTA | -0.256
ACGTCGTG | -0.141
CCCCACAG | -0.3
GATCTACC | -0.0369
ATTGCTGG | -0.186
ACGTCTTG | -0.203
CTATGGAC | -0.00574
TATCCACA | -0.16

Sequence | PBM E-score
AGTTTCCA | -0.133
CTGGCTAC | -0.182
CGGGCTGC | 0.156
GATTTATA | 0.146
AACCCTGC | -0.165
ACAATCCT | -0.141
CACATATG | -0.336
ATGTGTCA | -0.244
CGTAGCTA | -0.112
AATAATCC | 0.164
GTACCTAA | -0.248
ACCCGCCC | 0.191
AACTCTGG | -0.202
GAGTATGA | 0.151
ACTATTGA | -0.0546
TCCGATAA | 0.45
AGTGGATA | -0.0193
GACGGATA | 0.223
ATCGCTTA | -0.0437
CGGGGGAG | 0.256
TGCACTAA | -0.0422
AGATTCGG | 0.31
AGCACATC | 0.0396
CCAGCTTC | -0.166
CGCACTAC | 0.0586

Sequence | PBM E-score
CCCCTACG | -0.145
CACGGTAG | -0.0323
ACCACTTG | -0.262
CAAGGATA | -0.115
GTCGTTAA | 0.0118
CCCAAAAC | -0.161
AGCCCCTC | -0.208
CACTAGTG | -0.215
CATTATGA | -0.202
AGACGGGG | 0.119
CTGAATAA | -0.139
TAATTATA | 0.148
GGCGAAGA | 0.0827
ACCAAGGA | -0.0951
ATCGGGGC | 0.308
AATAGACT | -0.163
ACTCTCCC | 0.189
ATAACCCC | 0.244
CAGTACTA | -0.208
CCGTGTAC | 0.094
CTTCCATC | -0.0451
CGACCAGA | 0.0439
GATCTTGC | 0.103
ATCAGTTG | -0.252
ATCGCACG | -0.0952

Sequence | PBM E-score
TCGGCAAA | 0.168
GAGCGATC | 0.0915
AAGCGCGA | 0.101
GACATAGC | 0.0141
AAGTAGAA | -0.218
ACAAGACC | -0.0664
ACCAGGAG | 0.0524
CGAAATAG | 0.137
CTCGAAGC | -0.12
CTCATAAG | -0.145
TCTGCGCA | -0.0847
AGAGGTAC | -0.115
GACGAAGC | -0.0487
GGAACGAC | -0.188
CATCCCCC | 0.0864
CGTCCGAC | 0.302
ATATAGTA | -0.156
GCCGCGAA | 0.15
CTAATAGA | -0.0855
